Laboratory results: publication PMC5700166
This is a selection; strong and weak results do not stand in their true shares. The list includes weakly bound sequences.

Legend:
Experiment in all cases: protein-binding microarray (PBM)
Conditions in all cases: PBM: ~300 nM protein, 6 mM HEPES pH 7.8, 80 mM KCl, 0.5 mM EDTA, 0.5 mM EGTA, 6% glycerol, 35 ng/ul poly-dIdC, 1% milk, 1 h, room temperature; Ap Aiptasia and Nv Nematostella (sea anemones) / Co Capsaspora / Aq Amphimedon (sponge) / Dm Drosophila / Hu human; RHD is the Rel homology domain; high values mean tight binding; most listed sequences are background and not binding sites; double strand, one strand shown
GST-Ap-NF-kB RHD = target: T1, GST-Ap-NF-kB RHD (UniProt A0A913YAJ5)
T1 sequence: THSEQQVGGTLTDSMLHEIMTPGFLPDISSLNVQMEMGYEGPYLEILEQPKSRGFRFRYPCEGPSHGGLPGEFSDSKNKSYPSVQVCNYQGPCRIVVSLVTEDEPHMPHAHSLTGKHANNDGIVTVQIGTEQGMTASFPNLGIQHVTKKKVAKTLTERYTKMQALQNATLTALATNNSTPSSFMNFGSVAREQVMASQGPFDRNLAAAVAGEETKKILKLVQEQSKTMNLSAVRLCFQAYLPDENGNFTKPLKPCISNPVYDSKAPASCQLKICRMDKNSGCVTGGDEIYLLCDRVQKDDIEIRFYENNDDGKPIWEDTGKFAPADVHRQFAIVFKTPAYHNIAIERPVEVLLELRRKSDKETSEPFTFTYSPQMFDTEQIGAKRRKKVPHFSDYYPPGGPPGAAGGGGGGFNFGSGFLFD

GST-Co-NF-kB = target: T2, GST-Co-NF-kB (UniProt F1ARL5)
T2 sequence: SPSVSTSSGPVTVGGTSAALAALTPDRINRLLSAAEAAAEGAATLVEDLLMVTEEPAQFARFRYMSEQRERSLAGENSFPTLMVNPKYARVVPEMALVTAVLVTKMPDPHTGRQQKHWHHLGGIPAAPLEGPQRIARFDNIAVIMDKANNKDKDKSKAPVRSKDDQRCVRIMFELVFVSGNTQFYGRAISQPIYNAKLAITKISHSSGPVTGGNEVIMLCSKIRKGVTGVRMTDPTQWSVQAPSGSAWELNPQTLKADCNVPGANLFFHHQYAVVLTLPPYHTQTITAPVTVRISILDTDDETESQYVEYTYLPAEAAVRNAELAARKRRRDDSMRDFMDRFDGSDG

GST-Aq-NF-kB = target: T3, GST-Aq-NF-kB (UniProt A9Y5G7)
T3 sequence: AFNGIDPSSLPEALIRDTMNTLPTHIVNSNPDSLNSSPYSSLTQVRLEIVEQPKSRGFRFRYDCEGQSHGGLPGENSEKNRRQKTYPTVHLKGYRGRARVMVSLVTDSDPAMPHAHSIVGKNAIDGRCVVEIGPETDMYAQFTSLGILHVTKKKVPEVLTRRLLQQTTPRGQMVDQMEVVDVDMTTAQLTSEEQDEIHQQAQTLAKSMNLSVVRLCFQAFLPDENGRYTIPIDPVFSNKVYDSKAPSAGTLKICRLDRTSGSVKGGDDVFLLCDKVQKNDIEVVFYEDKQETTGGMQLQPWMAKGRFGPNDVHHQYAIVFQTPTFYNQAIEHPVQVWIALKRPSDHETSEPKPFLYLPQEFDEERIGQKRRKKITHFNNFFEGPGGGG

GST-Dm-Relish = target: T4, GST-Dm-Relish (UniProt Q94527)
T4 sequence: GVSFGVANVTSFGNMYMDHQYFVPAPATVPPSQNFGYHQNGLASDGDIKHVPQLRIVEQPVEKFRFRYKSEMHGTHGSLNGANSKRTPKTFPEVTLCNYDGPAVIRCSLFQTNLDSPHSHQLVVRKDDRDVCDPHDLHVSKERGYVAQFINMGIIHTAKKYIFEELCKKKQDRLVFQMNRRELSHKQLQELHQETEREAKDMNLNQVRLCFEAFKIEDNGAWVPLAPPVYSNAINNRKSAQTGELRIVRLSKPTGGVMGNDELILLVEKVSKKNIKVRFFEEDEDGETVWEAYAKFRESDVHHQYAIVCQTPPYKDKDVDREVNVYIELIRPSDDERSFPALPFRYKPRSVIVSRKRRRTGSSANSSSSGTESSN

Row | Sequence | binding signal (GST-Ap-NF-kB RHD) | binding signal (GST-Co-NF-kB) | binding signal (GST-Aq-NF-kB) | binding signal (GST-Dm-Relish)
1 | CCGATTAACATCACGGAAAAAACTGATGTTAATCGGGTCTTGATTCGCTTGACGCTGCTG | 0.665 z-score | 1.37 z-score | 0.929 z-score | –
2 | CCGATTAACATCAGGGGGTTGGATGATGTTAATCGGGTCTTGATTCGCTTGACGCTGCTG | 4.25 z-score | 2.05 z-score | 3.38 z-score | –
3 | CCGATTAACATCAAGAAAGTCCCTGATGTTAATCGGGTCTTGATTCGCTTGACGCTGCTG | 7.56 z-score | 1.38 z-score | 6.74 z-score | –
4 | CCGATTAACATCAGGGACATACCTGATGTTAATCGGGTCTTGATTCGCTTGACGCTGCTG | 2.52 z-score | 0.808 z-score | 5.64 z-score | –
5 | CCGATTAACATCACGTGGGGCGTTGATGTTAATCGGGTCTTGATTCGCTTGACGCTGCTG | 0.973 z-score | 0.69 z-score | 0.97 z-score | 0.692 z-score
6 | CCGATTAACATCAGGAAACCCCCTGATGTTAATCGGGTCTTGATTCGCTTGACGCTGCTG | 11.2 z-score | 3.13 z-score | 10.5 z-score | 10.1 z-score
7 | CCGATTAACATCAAACTTTTCCCTGATGTTAATCGGGTCTTGATTCGCTTGACGCTGCTG | 3.37 z-score | – | 4.63 z-score | 1.45 z-score
8 | CCGATTAACATCACTCTTCTCGGTGATGTTAATCGGGTCTTGATTCGCTTGACGCTGCTG | 0.929 z-score | 0.813 z-score | 0.148 z-score | –
9 | CCGATTAACATCAAGGAATTTCCTGATGTTAATCGGGTCTTGATTCGCTTGACGCTGCTG | 0.638 z-score | 0.535 z-score | 4.35 z-score | 2.04 z-score
10 | CCGATTAACATCAGGGGACCCCCTGATGTTAATCGGGTCTTGATTCGCTTGACGCTGCTG | 9.65 z-score | 4.17 z-score | 8.56 z-score | 10.7 z-score
11 | CCGATTAACATCAAAAACCCCCGTGATGTTAATCGGGTCTTGATTCGCTTGACGCTGCTG | 9.67 z-score | 4.41 z-score | 8.35 z-score | 10.8 z-score
12 | CCGATTAACATCAGATAATTCCCTGATGTTAATCGGGTCTTGATTCGCTTGACGCTGCTG | 5.7 z-score | 4.01 z-score | 7.02 z-score | 3.74 z-score
13 | CCGATTAACATCATACTTCCCCATGATGTTAATCGGGTCTTGATTCGCTTGACGCTGCTG | 3.97 z-score | 4.69 z-score | 3.58 z-score | 3.18 z-score
14 | CCGATTAACATCAATTTTCCCCCTGATGTTAATCGGGTCTTGATTCGCTTGACGCTGCTG | 7.68 z-score | 12 z-score | 6.79 z-score | –
15 | CCGATTAACATCACGGGATTTTCTGATGTTAATCGGGTCTTGATTCGCTTGACGCTGCTG | 5.11 z-score | 1.98 z-score | 5.2 z-score | –
16 | CCGATTAACATCAGGGAAGCCCATGATGTTAATCGGGTCTTGATTCGCTTGACGCTGCTG | 1.18 z-score | 0.584 z-score | 3.64 z-score | 8.29 z-score
17 | CCGATTAACATCACAAAACCCCCTGATGTTAATCGGGTCTTGATTCGCTTGACGCTGCTG | 9.76 z-score | 3.3 z-score | 7.82 z-score | 10.4 z-score
